Patent publication US20200002439A1 (GENSUN BIOPHARMA, published 2020)
Like-named read-outs stand apart in the source and are kept apart here. One block for each binder: values may come before it.

Legend:
[1] = target: human TGFβ1 (human, UniProt P01137 part only); experiment: cell-based or functional assay
[2] = target: T1, recombinant human VEGF 165 (human, UniProt P15692-4 27-191); experiment: blocking ELISA: VEGF-165 coated on the plate, binding of recombinant human VEGFR-2-hu IgG1-His Tag is blocked
T1 construct: Bought protein
T1 sequence (looked up): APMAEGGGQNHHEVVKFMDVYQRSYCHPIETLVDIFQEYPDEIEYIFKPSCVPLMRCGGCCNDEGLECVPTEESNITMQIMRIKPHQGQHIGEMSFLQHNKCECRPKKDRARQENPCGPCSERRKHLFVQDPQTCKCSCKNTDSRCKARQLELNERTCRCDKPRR
Description: Briefly, 0.5 ug/ml of recombinant human VEGF-165 (R&D #293-VE-050/CF) in carbonate-bicarbonate buffer was coated to the wells in a 96-well assay plate and incubated overnight at 4° C. The wells were then washed 3 times with 0.05% Tween 20 in PBS (wash buffer), blocked with 1% BSA in PBS for 1 hour at room temperature, and washed 3 times with wash buffer. 50 μl 5-fold serially diluted antibodies were then added to wells in the plate and incubated for 30 minutes at room temperature. […] 100 μl anti-His tag HRP (1:10,000) was then added and the plates were incubated for 40 mins at room temperature and washed 3 times with wash buffer.

[3] = target: T2, human PD-1 on transfected CHO-K1 cells (human, UniProt Q15116 25-288); experiment: cell-based blocking assay, flow cytometry: binding of FITC labeled human PD-L1-Fc to human PD-1 transfected CHO-K1 cells is blocked
T2 construct: also called Human PD-1 transfected CHO-K1 cells
Description: Incubate for 15 mins before analysis with the iQue intellicyt system.

[4] = target: T2, human PD-1 on transfected CHO-K1 cells; experiment: as above; remark: listed apart in the source
[5] = target: T3, recombinant human Ang2 (human, UniProt O15123 19-496); experiment: blocking ELISA: Ang2 coated on the plate, binding of recombinant human Tie2 is blocked
T3 construct: also called Ang2 (R&D)
T3 sequence (looked up): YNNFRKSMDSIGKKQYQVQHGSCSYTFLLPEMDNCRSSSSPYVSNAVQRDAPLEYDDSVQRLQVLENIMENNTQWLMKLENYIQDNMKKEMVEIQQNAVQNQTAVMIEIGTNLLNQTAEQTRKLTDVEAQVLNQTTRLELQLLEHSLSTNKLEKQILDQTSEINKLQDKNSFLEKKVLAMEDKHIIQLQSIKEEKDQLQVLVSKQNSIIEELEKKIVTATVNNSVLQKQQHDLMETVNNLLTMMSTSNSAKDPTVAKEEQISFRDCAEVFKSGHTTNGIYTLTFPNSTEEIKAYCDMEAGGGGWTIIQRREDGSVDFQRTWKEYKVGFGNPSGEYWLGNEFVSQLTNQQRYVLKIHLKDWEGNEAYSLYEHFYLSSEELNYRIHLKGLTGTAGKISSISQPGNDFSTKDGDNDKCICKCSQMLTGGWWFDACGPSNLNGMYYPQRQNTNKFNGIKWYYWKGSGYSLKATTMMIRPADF
Description: IC50 values were determined as the mid-point in the activity curve.

Sequence of human TGFβ1 (P01137 279-390 limits assumed): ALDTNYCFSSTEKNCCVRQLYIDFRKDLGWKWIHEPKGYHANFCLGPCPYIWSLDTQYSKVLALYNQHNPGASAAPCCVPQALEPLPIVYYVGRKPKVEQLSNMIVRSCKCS
T2 sequence (Q15116 25-288 limits assumed): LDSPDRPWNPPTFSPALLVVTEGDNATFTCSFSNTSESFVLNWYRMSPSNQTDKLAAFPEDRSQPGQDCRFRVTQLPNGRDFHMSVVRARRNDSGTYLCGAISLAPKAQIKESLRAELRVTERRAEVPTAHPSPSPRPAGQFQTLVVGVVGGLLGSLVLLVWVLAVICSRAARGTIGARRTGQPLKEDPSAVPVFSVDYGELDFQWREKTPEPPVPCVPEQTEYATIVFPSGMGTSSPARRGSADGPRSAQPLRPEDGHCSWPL

IC50 [5]: 0.95 nM
IC50 [4]: 14.8 nM
B5: TS-ZPT-1.2(2P16) (other)
chain 1: SDTGRPFVEMYSEIPEIIHMTEGRELVIPCRVTSPNITVTLKKFPLDTLIPDGKRIIWDSRKGFIISNATYKEIGLLTCEATVNGHLYKTNYLTHRQTNTIIDVVLSPSHGIELSVGEKLVLNCTARTELNVGIDFNWEYPSSKHQHKKLVNRDLKTQSGSEMKKFLSTLTIDGVTRSDQGLYTCAASSGLMTKKNSTFVRVHEKGGGGSGGGGSGGGGSQVQLVQSGAEVKKPGASVKVSCKASGYTFTTYYIYWVRQAPGQGLEWMGGINPGNGGTNFNEKFKIRVTMTRDTSISTAYMELSSLRSEDTAVYYCARRYHGYDGGLDYWGQGTLVTVSSASTKGPSVFPLAPCSRSTSESTAALGCLVKDYFPEPVTVSWNSGALTSGVHTFPAVLQSSGLYSLSSVVTVPSSSLGTKTYTCNVDHKPSNTKVDKRV[human IgG4 Fc with S228P (EU numbers) left out]GGGGGAQQEECEWDPWTCEHMGSGSATGGSGSTASSGSGSATHQEECEWDPWTCEHMLE
chain 2: DIVLTQSPASLAVSPGQRATITCRASKSVSTSGFSYIHWYQQKPGQPPKLLIYLASNLESGVPARFSGSGSGTDFTLTINPVEANDTANYYCQHTWELPNTFGGGTKVEIKRTVAAPSVFIFPPSDEQLKSGTASVVCLLNNFYPREAKVQWKVDNALQSGNSQESVTEQDSKDSTYSLSSTLTLSKADYEKHKVYACEVTHQGLSSPVTKSFNRGEC

IC50 [4]: 33 nM
B6: TS-ZPT-1.3(2P16) (other)
chain 1: QVQLVQSGAEVKKPGASVKVSCKASGYTFTTYYIYWVRQAPGQGLEWMGGINPGNGGTNFNEKFKIRVTMTRDTSISTAYMELSSLRSEDTAVYYCARRYHGYDGGLDYWGQGTLVTVSSASTKGPSVFPLAPCSRSTSESTAALGCLVKDYFPEPVTVSWNSGALTSGVHTFPAVLQSSGLYSLSSVVTVPSSSLGTKTYTCNVDHKPSNTKVDKRV[human IgG4 Fc with S228P (EU numbers) left out]GGGGGAQQEECEWDPWTCEHMGSGSATGGSGSTASSGSGSATHQEECEWDPWTCEHMLE
chain 2: SDTGRPFVEMYSEIPEIIHMTEGRELVIPCRVTSPNITVTLKKFPLDTLIPDGKRIIWDSRKGFIISNATYKEIGLLTCEATVNGHLYKTNYLTHRQTNTIIDVVLSPSHGIELSVGEKLVLNCTARTELNVGIDFNWEYPSSKHQHKKLVNRDLKTQSGSEMKKFLSTLTIDGVTRSDQGLYTCAASSGLMTKKNSTFVRVHEKGGGGSGGGGSGGGGSDIVLTQSPASLAVSPGQRATITCRASKSVSTSGFSYIHWYQQKPGQPPKLLIYLASNLESGVPARFSGSGSGTDFTLTINPVEANDTANYYCQHTWELPNTFGGGTKVEIKRTVAAPSVFIFPPSDEQLKSGTASVVCLLNNFYPREAKVQWKVDNALQSGNSQESVTEQDSKDSTYSLSSTLTLSKADYEKHKVYACEVTHQGLSSPVTKSFNRGEC

Second part, the binder before the results:

B1: TS-ZPB-2(2P17) (other)
chain 1: IPPHVQKSVNNDMIVTDNNGAVKFPQLCKFCDVRFSTCDNQKSCMSNCSITSICEKPQEVCVAVWRKNDENITLETVCHDPKLPYHDFILEDAASPKCIMKEKKKPGETFFMCSCSSDECNDNIIFSEEYNTSNPDGGGGSGGGGSGGGGSQVQLVQSGAEVKKPGASVKVSCKASGYTFTSYYIHWVRQAPGQGLEWMGWIFPGSGNSKYNENFKGRVTLTADTSTSTVYMELSSLRSEDTAVYYCASETYDYGDYWGQGTLVTVSSASTKGPSVFPLAPCSRSTSESTAALGCLVKDYFPEPVTVSWNSGALTSGVHTFPAVLQSSGLYSLSSVVTVPSSSLGTKTYTCNVDHKPSNTKVDKRV[human IgG4 Fc with S228P (EU numbers) left out]GGGGSGGGGSGGGGSSDTGRPFVEMYSEIPEIIHMTEGRELVIPCRVTSPNITVTLKKFPLDTLIPDGKRIIWDSRKGFIISNATYKEIGLLTCEATVNGHLYKTNYLTHRQTNTIIDVVLSPSHGIELSVGEKLVLNCTARTELNVGIDFNWEYPSSKHQHKKLVNRDLKTQSGSEMKKFLSTLTIDGVTRSDQGLYTCAASSGLMTKKNSTFVRVHEK
chain 2: DIQMTQSPSFLSASVGDRVTITCKASQNVGTNVAWYQQKPGKAPKALIYSASYRYSGVPSRFSGSGSGTEFTLTISSLQPEDFATYYCQQYYSYPYTFGQGTKLEIKRTVAAPSVFIFPPSDEQLKSGTASVVCLLNNFYPREAKVQWKVDNALQSGNSQESVTEQDSKDSTYSLSSTLTLSKADYEKHKVYACEVTHQGLSSPVTKSFNRGEC
IC50; luciferase signal of TGFβ/SMAD SBE Reporter-HEK293 cells stimulated with human TGFβ1 [1]: 0.24 nM
IC50 [2]: 1.92 nM
IC50 [3]: 11.1 nM

B2: TS-ZPB-5(2P17) (other)
heavy: QVQLVQSGAEVKKPGASVKVSCKASGYTFTSYYIHWVRQAPGQGLEWMGWIFPGSGNSKYNENFKGRVTLTADTSTSTVYMELSSLRSEDTAVYYCASETYDYGDYWGQGTLVTVSSASTKGPSVFPLAPCSRSTSESTAALGCLVKDYFPEPVTVSWNSGALTSGVHTFPAVLQSSGLYSLSSVVTVPSSSLGTKTYTCNVDHKPSNTKVDKRV[human IgG4 Fc with S228P (EU numbers) left out]GGGGSGGGGSGGGGSSDTGRPFVEMYSEIPEIIHMTEGRELVIPCRVTSPNITVTLKKFPLDTLIPDGKRIIWDSRKGFIISNATYKEIGLLTCEATVNGHLYKTNYLTHRQTNTIIDVVLSPSHGIELSVGEKLVLNCTARTELNVGIDFNWEYPSSKHQHKKLVNRDLKTQSGSEMKKFLSTLTIDGVTRSDQGLYTCAASSGLMTKKNSTFVRVHEKGGGGSGGGGSGGGGSIPPHVQKSVNNDMIVTDNNGAVKFPQLCKFCDVRFSTCDNQKSCMSNCSITSICEKPQEVCVAVWRKNDENITLETVCHDPKLPYHDFILEDAASPKCIMKEKKKPGETFFMCSCSSDECNDNIIFSEEYNTSNPD
light: B1 chain 2
notes: also called TS-TPB-5
IC50; luciferase signal of TGFβ/SMAD SBE Reporter-HEK293 cells stimulated with human TGFβ1 [1]: 0.17 nM
IC50 [2]: 6.58 nM
IC50 [3]: 2.72 nM

B3: TS-ZPB-1(2P17) (other)
chain 1: SDTGRPFVEMYSEIPEIIHMTEGRELVIPCRVTSPNITVTLKKFPLDTLIPDGKRIIWDSRKGFIISNATYKEIGLLTCEATVNGHLYKTNYLTHRQTNTIIDVVLSPSHGIELSVGEKLVLNCTARTELNVGIDFNWEYPSSKHQHKKLVNRDLKTQSGSEMKKFLSTLTIDGVTRSDQGLYTCAASSGLMTKKNSTFVRVHEKGGGGSGGGGSGGGGSQVQLVQSGAEVKKPGASVKVSCKASGYTFTSYYIHWVRQAPGQGLEWMGWIFPGSGNSKYNENFKGRVTLTADTSTSTVYMELSSLRSEDTAVYYCASETYDYGDYWGQGTLVTVSSASTKGPSVFPLAPCSRSTSESTAALGCLVKDYFPEPVTVSWNSGALTSGVHTFPAVLQSSGLYSLSSVVTVPSSSLGTKTYTCNVDHKPSNTKVDKRV[human IgG4 Fc with S228P (EU numbers) left out]GGGGSGGGGSGGGGSIPPHVQKSVNNDMIVTDNNGAVKFPQLCKFCDVRFSTCDNQKSCMSNCSITSICEKPQEVCVAVWRKNDENITLETVCHDPKLPYHDFILEDAASPKCIMKEKKKPGETFFMCSCSSDECNDNIIFSEEYNTSNPD
chain 2: B1 chain 2
IC50; luciferase signal of TGFβ/SMAD SBE Reporter-HEK293 cells stimulated with human TGFβ1 [1]: 0.07 nM
IC50 [2]: 1.32 nM
IC50 [3]: 9.29 nM

B4: TS-ZPT-1.1(2P16) (other)
chain 1: B5 chain 1
chain 2: B6 chain 2
IC50 [4]: 140 nM
